Measured values taken from paper PMC13434659.
These are yes or no findings as the source states them, for the method shown. In cells and extracts the contact can be indirect. Some entries that bind do so weakly or less than the wild type. Tags and fused reporters may be left off the sequences shown.

Columns and labels:
Flag-tagged PKD2 (human) [1] = target: T1, Flag-tagged PKD2 (human) (UniProt Q13563); test: co-IP; HEK cell lysates (CelLytic M lysis buffer), antibody 5 h at 4 °C, protein A/G magnetic beads overnight, Western blot; proteins transfected or endogenous; for the PKD2 N/C and PKD2/PKD2 pairs with or without RASSF4 over-expression
T1 sequence: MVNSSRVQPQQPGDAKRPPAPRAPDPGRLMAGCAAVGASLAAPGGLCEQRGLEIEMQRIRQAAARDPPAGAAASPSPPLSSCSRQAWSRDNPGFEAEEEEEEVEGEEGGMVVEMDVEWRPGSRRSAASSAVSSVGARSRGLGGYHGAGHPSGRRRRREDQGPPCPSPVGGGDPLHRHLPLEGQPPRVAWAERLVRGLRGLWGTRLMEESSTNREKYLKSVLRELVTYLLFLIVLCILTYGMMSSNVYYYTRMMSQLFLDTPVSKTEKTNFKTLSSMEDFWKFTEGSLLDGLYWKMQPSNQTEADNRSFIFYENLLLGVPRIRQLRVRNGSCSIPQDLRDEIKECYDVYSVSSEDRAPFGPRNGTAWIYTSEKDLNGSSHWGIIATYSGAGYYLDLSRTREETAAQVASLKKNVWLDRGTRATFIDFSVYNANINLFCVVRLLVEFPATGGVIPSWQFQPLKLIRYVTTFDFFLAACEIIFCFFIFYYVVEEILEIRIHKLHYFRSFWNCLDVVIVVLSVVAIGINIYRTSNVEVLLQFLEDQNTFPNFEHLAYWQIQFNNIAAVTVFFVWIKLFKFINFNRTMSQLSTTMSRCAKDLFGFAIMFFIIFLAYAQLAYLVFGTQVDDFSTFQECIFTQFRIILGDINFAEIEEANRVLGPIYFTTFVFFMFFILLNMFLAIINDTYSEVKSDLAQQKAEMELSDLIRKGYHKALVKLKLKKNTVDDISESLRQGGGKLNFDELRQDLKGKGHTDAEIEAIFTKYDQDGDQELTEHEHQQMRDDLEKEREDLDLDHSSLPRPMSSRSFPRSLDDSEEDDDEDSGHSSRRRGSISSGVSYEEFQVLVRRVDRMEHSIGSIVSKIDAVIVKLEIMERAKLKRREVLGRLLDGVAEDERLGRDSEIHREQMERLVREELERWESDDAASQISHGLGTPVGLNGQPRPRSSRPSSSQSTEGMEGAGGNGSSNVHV

[2] = target: T2, HA-tagged PKD2 central domain S1-S6 (K215-M675) (human) (UniProt Q13563); test: as above
T2 sequence: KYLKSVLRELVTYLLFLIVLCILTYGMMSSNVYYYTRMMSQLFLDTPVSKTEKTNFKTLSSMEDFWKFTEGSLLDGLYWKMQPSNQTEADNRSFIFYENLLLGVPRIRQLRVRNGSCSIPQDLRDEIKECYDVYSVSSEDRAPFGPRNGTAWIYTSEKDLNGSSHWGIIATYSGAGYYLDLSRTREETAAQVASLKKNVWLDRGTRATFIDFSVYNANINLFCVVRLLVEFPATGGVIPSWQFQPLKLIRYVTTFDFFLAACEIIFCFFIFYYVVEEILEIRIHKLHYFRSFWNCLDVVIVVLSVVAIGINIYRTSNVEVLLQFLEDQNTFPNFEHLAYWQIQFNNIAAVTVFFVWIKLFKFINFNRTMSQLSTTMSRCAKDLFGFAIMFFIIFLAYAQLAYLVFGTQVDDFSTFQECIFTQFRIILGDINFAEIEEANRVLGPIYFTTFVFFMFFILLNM

[3] = target: T3, HA-tagged PKD2 C-terminus (I671-V968) (human) (UniProt Q13563); test: as above
T3 sequence: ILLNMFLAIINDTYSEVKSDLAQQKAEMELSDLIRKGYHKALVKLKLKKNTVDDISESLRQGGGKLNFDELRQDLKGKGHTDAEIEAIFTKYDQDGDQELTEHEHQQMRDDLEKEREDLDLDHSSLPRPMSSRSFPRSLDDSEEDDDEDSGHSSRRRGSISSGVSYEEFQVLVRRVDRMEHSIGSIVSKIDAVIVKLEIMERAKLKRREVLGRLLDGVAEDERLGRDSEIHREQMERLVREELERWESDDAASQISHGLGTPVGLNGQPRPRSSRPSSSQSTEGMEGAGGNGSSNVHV

[4] = target: T4, HA-tagged PKD2 N-terminus (M1-S219) (human) (UniProt Q13563); test: as above
T4 sequence: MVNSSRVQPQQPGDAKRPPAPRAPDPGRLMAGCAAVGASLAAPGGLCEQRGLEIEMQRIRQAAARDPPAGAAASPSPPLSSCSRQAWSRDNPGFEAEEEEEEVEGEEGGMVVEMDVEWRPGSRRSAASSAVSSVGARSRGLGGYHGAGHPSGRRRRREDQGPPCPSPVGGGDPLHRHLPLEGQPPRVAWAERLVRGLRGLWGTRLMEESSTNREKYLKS

[5] = target: T5, GFP-tagged PKD2 central domain S1-S6 (K215-M675) (human) (UniProt Q13563); test: as above
T5 sequence: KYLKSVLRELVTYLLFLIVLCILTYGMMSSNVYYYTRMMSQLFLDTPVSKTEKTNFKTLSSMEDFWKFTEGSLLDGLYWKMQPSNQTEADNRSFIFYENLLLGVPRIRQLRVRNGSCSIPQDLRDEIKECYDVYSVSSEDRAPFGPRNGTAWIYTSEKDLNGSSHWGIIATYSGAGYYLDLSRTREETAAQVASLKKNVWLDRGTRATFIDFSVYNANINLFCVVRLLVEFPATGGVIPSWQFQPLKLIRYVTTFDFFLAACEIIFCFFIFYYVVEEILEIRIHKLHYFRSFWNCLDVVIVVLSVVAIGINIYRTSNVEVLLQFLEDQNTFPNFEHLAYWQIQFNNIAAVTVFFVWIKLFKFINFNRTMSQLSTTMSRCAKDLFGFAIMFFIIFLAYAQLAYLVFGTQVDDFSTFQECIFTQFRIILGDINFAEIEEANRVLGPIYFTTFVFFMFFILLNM

[6] = target: T6, GFP-tagged PKD2 N-terminus (M1-S219) (human) (UniProt Q13563); test: as above
T6 sequence: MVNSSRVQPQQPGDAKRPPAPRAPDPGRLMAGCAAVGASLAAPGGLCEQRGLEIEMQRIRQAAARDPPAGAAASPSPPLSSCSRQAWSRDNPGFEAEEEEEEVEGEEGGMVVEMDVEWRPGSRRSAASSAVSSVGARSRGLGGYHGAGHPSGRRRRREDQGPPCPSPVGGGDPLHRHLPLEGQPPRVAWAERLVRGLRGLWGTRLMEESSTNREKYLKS

[7] = target: T7, GFP-tagged PKD2 C-terminus (I671-V968) (human) (UniProt Q13563); test: as above
T7 sequence: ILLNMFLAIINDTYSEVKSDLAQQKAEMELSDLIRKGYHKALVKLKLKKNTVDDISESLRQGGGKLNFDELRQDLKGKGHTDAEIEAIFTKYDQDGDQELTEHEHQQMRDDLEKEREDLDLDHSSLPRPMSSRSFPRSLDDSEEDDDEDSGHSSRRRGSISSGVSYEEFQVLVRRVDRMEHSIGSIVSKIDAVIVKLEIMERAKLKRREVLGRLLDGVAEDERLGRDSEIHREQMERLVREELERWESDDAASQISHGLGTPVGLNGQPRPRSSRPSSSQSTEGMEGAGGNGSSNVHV

[8] = target: T8, human PKD2, transiently over-expressed in HEK293T cells (tag not stated) (human) (UniProt Q13563); test: as above
T8 sequence: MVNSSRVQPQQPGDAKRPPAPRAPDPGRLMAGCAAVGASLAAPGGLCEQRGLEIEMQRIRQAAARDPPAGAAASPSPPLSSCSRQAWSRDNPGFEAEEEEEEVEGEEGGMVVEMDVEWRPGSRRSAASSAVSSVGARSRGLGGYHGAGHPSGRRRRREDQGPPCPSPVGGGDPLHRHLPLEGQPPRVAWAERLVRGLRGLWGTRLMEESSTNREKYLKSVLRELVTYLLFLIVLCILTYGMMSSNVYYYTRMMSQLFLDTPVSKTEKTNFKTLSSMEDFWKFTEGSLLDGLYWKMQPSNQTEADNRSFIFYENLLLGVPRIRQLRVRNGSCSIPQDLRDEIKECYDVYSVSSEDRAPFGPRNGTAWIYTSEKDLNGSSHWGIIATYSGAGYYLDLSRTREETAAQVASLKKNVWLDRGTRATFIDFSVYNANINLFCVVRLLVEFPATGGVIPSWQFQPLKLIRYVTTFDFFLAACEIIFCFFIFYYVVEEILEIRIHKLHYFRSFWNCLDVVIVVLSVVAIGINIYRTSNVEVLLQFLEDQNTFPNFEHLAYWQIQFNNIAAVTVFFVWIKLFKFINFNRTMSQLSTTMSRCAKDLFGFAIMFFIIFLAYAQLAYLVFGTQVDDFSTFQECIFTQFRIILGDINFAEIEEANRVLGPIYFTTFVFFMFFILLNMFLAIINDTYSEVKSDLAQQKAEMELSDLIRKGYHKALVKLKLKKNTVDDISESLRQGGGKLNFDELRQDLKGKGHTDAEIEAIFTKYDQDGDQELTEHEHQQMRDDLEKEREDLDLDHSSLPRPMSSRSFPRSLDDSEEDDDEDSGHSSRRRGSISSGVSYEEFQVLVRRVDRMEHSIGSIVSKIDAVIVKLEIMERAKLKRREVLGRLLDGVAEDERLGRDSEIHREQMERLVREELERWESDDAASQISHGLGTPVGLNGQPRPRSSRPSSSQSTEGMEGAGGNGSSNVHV

[9] = target: T9, endogenous PKD2 of HEK cells (human (endogenous in HEK cells)) (UniProt Q13563); test: as above
T9 sequence: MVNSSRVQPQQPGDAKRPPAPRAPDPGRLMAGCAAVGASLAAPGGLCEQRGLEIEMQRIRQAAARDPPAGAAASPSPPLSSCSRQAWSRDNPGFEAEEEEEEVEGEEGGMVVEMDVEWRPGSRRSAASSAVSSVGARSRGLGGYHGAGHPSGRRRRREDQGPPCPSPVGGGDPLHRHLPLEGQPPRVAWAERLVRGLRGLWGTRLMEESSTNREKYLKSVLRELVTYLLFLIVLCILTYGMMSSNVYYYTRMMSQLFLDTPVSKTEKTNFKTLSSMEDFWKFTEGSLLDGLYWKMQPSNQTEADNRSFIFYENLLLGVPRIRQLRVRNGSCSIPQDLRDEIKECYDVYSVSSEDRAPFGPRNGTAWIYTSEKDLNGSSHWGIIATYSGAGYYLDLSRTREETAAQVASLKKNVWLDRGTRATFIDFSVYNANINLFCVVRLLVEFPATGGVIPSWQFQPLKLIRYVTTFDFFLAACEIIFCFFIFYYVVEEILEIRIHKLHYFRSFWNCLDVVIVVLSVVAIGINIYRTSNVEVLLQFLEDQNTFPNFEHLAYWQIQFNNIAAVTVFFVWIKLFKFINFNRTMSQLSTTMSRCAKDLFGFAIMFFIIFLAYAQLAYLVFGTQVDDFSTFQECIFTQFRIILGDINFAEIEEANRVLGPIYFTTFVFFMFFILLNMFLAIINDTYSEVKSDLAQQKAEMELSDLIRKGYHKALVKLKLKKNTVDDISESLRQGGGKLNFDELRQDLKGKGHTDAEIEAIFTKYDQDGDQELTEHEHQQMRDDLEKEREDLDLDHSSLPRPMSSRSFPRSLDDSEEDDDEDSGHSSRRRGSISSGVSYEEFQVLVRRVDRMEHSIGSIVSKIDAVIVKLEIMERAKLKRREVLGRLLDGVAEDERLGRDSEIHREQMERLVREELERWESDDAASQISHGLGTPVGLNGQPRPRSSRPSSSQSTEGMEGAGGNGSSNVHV

Flag-tagged PKD2 (human) [10] = target: T1, Flag-tagged PKD2 (human); test: co-IP; HEK cells co-expressing full-length RASSF4 and PKD2 with a RASSF4 fragment as potential blocking peptide

Measured: binding

B1: GFP-RASSF4 (protein, UniProt Q9H2L5 1-321)
chain: MKEDCLPSSHVPISDSKSIQKSELLGLLKTYNCYHEGKSFQLRHREEEGTLIIEGLLNIAWGLRRPIRLQMQDDREQVHLPSTSWMPRRPSCPLKEPSPQNGNITAQGPSIQPVHKAESSTDSSGPLEEAEEAPQLMRTKSDASCMSQRRPKCRAPGEAQRIRRHRFSINGHFYNHKTSVFTPAYGSVTNVRVNSTMTTLQVLTLLLNKFRVEDGPSEFALYIVHESGERTKLKDCEYPLISRILHGPCEKIARIFLMEADLGVEVPHEVAQYIKFEMPVLDSFVEKLKEEEEREIIKLTMKFQALRLTMLQRLEQLVEAK
binds: Flag-tagged PKD2 (human) [1] | [2] | [3] | [4]

B2: GFP-tagged RASSF4 fragment M1-P156 (domain or fragment, UniProt Q9H2L5 1-156)
chain: MKEDCLPSSHVPISDSKSIQKSELLGLLKTYNCYHEGKSFQLRHREEEGTLIIEGLLNIAWGLRRPIRLQMQDDREQVHLPSTSWMPRRPSCPLKEPSPQNGNITAQGPSIQPVHKAESSTDSSGPLEEAEEAPQLMRTKSDASCMSQRRPKCRAP
binds: Flag-tagged PKD2 (human) [1] | [2] | [3] | [4]

B3: HA-RASSF4 (protein, UniProt Q9H2L5 1-321)
chain: MKEDCLPSSHVPISDSKSIQKSELLGLLKTYNCYHEGKSFQLRHREEEGTLIIEGLLNIAWGLRRPIRLQMQDDREQVHLPSTSWMPRRPSCPLKEPSPQNGNITAQGPSIQPVHKAESSTDSSGPLEEAEEAPQLMRTKSDASCMSQRRPKCRAPGEAQRIRRHRFSINGHFYNHKTSVFTPAYGSVTNVRVNSTMTTLQVLTLLLNKFRVEDGPSEFALYIVHESGERTKLKDCEYPLISRILHGPCEKIARIFLMEADLGVEVPHEVAQYIKFEMPVLDSFVEKLKEEEEREIIKLTMKFQALRLTMLQRLEQLVEAK
binds: [5] | [6] | [7]

B4: human RASSF4, over-expressed in HEK cells (tag not stated) (protein, UniProt Q9H2L5 1-321)
chain: MKEDCLPSSHVPISDSKSIQKSELLGLLKTYNCYHEGKSFQLRHREEEGTLIIEGLLNIAWGLRRPIRLQMQDDREQVHLPSTSWMPRRPSCPLKEPSPQNGNITAQGPSIQPVHKAESSTDSSGPLEEAEEAPQLMRTKSDASCMSQRRPKCRAPGEAQRIRRHRFSINGHFYNHKTSVFTPAYGSVTNVRVNSTMTTLQVLTLLLNKFRVEDGPSEFALYIVHESGERTKLKDCEYPLISRILHGPCEKIARIFLMEADLGVEVPHEVAQYIKFEMPVLDSFVEKLKEEEEREIIKLTMKFQALRLTMLQRLEQLVEAK
binds: [8] | [9] | Flag-tagged PKD2 (human) [10]

B5: GFP-tagged RASSF4 fragment M1-L69 (domain or fragment, UniProt Q9H2L5 1-69)
chain: MKEDCLPSSHVPISDSKSIQKSELLGLLKTYNCYHEGKSFQLRHREEEGTLIIEGLLNIAWGLRRPIRL
binds: Flag-tagged PKD2 (human) [1]
